Source: the supplement of paper PMC3334620
In all, about 33,000 sequences were measured (“E-score (-0.5 to 0.5)”: median about -0.035, highest 2% from about 0.34 on). Some of the results follow.

Molecular target: T1, Mot3 (UniProt P54785)
T1 sequence: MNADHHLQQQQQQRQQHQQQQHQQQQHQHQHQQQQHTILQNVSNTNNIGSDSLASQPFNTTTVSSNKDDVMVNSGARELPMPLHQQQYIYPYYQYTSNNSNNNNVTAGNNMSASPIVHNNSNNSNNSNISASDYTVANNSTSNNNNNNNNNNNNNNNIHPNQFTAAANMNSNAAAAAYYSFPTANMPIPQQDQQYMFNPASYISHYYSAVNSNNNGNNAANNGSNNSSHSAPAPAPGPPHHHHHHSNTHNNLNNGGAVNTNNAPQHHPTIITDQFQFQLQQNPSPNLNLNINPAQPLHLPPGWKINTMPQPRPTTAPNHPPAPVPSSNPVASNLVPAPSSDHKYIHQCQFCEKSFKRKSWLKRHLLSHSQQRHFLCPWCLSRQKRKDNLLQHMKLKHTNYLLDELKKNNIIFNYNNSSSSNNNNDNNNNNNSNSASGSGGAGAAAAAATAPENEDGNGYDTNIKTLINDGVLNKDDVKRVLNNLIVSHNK
Assay: PBM E-score (8-mer binding enrichment) (E-score (-0.5 to 0.5)); higher = stronger / more preferred TF binding; most listed sequences are background and not binding sites
Conditions: protein concentration: 200 nM; construct: GST-full length
Summary of the method: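 Bound GST-tagged yeast transcription factors, applied at about 100-200 nM to double-stranded universal all-10-mer Agilent arrays, were detected with fluorescent anti-GST. Scans were normalised with masliner. A modified Wilcoxon-Mann-Whitney statistic, the E-score, was assigned to each ungapped eight-base word pooled with its reverse complement by the Universal PBM Analysis Suite.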

Sequence	PBM E-score
GGTCTGAA	-0.181
AGCCGATA	-0.205
ACTTACGG	-0.0618
ATGAGGCC	-0.174
GCTGTGGA	-0.152
ACAGACGG	-0.181
AAATGGCC	-0.265
CTTGACTC	-0.0373
CGGATGTA	0.0737
AGGAGGCA	0.382
GAATCGCC	-0.281
TTGGTAAA	0.141
AGGCTTCC	-0.0116
CCCGTGAA	-0.184
TGATCTAA	0.0633
GTAGAAAA	0.207
GTATCACA	0.0797
TTACAGAA	0.106
AACATCAC	0.249
GGAATCGA	-0.201
AGTCGTGG	-0.214
GAACAAAC	0.193
ATACACAC	0.326
CCGGGCCC	-0.165
AGTACCAA	0.013

Sequence	PBM E-score
AGCACGTC	-0.0314
ACGGCGGA	-0.107
CAAAGGGA	-0.00904
TGCGTTAA	0.259
CAAATTCC	-0.00736
CCATAGAA	-0.148
CACGGTTA	0.183
GAATCACA	0.0103
CCCCCTTA	-0.27
AGCTTGAC	-0.129
CCCTACTC	-0.108
AATCTACA	0.349
AGTGACAC	0.192
ACGAAGGG	-0.0163
TACTTTCA	0.0677
CCGTCACA	-0.253
CAATCGTC	0.0563
CTTACATA	0.319
ACGTAGGC	0.271
AGATACCG	0.0845
ACCTTAGG	0.178
GGCGTTAC	0.0882
AGCGGAGG	0.0481
CTTGGCTC	-0.253
AAAGCTCT	-0.185

Sequence	PBM E-score
AACCTATC	-0.03
AAGGTCCA	-0.138
GTGTTGAA	0.317
ATTGAATG	-0.0786
GACCGATC	-0.226
CGCAGACG	-0.094
CAAGTACG	0.0271
ATCCTGCA	0.0998
AGTCCTCA	-0.231
CATAGGTC	-0.0819
GGGCCCCA	-0.3
AGAAGCCC	-0.158
CGCTTAAC	0.133
CAGACGAG	-0.27
ATTCGCGC	0.085
CCGTCGTC	-0.322
GGGCCACA	-0.367
CCGCGCAG	-0.216
CCGTATCG	-0.201
CGCTATAA	-0.0574
TCGGGTCA	-0.148
AGCCAGTG	-0.232
AAGCGTGT	0.297
ATCCGCCG	0.013
AGTTGTTA	0.122

Sequence	PBM E-score
AAAAGTGG	-0.0411
ACAATGTC	0.047
CCCTGCGG	-0.171
AACACTCT	0.121
ATTACTCA	0.165
ACTATGCC	0.0451
AGTACTAT	0.0238
CCAAATGC	-0.141
CAGTCAAA	-0.043
TATGGCGA	-0.321
CCCGATGA	-0.0598
ATAGAGAA	-0.011
CAATGCAG	0.0208
AGATAAGA	0.00264
AGCGCAGC	-0.26
CTTACAGA	-0.041
CTAATCGA	-0.0302
AATACCGA	-0.0843
ACTCTGAA	-0.0422
CGTGACTA	0.25
CGAGACGC	-0.0947
AATACATT	0.235
AGTTAACC	0.117
AGGAGCAT	0.178
CACTTGAA	0.105

Sequence	PBM E-score
AAACGCTT	0.00673
TCTTAACA	0.346
CGCATAGA	-0.00099
ACTCCAAG	-0.0115
ACGGTAAA	0.0714
TAAAGTGA	0.0617
GCCCTAGC	-0.184
CATATTTA	0.178
AAGATAAT	0.116
CCGCGGTC	-0.2
GCGGTCAA	-0.0964
GAAGTGCA	-0.127
AGTGGGGC	-0.303
TTTGCAAA	-0.00928
GTCTAGCA	-0.0517
TCACGTCA	-0.0046
CCCTCGAG	-0.156
AGTTGCGA	-0.0454
ACCTGCAG	0.174
AACTGTCA	-0.128
CATCTCGC	-0.229
AGCTAGTC	-0.156
AAAAACGC	0.18
AGATGACG	0.0401
AGAGCGAC	-0.22

Sequence	PBM E-score
CCTATGAG	-0.0641
AAGACGTC	-0.264
GAGTTGCC	0.161
ACAATGCG	0.0638
ACAGTGTA	0.161
ACCCTTGA	-0.314
ACGTTAAG	0.173
ACTGATAG	-0.0844
TGCCACCA	-0.262
AGTAGGAC	-0.258
CGTTCTCC	-0.0473
AGATCAGA	-0.13
CGGATACC	-0.0192
ACCTAAGC	0.0128
AATCTAGA	0.00627
CGGACCGC	-0.253
GGTGCTCA	-0.191
ATCTAACG	0.0107
AGAAGCAC	-0.066
CGCGCCGA	-0.0757
CCCGGCCA	-0.212
GATAAGAA	0.113
TGAAGACA	-0.00966
TCTGGGCA	0.0207
ACAAACAG	0.196

Sequence	PBM E-score
AGCCGACT	-0.233
AGAACGAA	-0.0249
CGAGCATC	-0.198
AGCCGTAC	-0.25
AGCAGTCG	-0.277
AAAGGTAT	0.102
ACCGAAAT	-0.102
AGCCACCC	-0.28
GAACCAAA	-0.108
AGCATAAA	0.0776
ACGTCCAC	-0.152
CAGCTGCA	-0.15
CAAGTCTC	-0.0942
TTACGTAA	0.298
AGCCCTTC	-0.223
CAACTAAG	0.101
GCTGCGCC	-0.24
ATTGTTCA	0.0311
CTAGGCGA	-0.178
GACTTTAC	0.0573
ACGTGTTA	0.351
AGCGTTAA	0.0224
